# Source: PMC4336329 (PLoS ONE, 2015)
# Among all 310,000 compounds or so, about 14,000 (4.5%) showed an effect of 50% or more. The effect is printed as a negative number. The list shows a part of the results.
# Molecular target: human ether-à-go-go-related gene (hERG) potassium channel (human, UniProt Q12809)
# Assay: primary screen, population patch clamp on CHO cells stably expressing hERG
# 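Also: peak tail current of the secondary pulse compared with the same well before compound.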
# Sequence of human ether-à-go-go-related gene (hERG) potassium channel (Q12809 whole entry, looked up): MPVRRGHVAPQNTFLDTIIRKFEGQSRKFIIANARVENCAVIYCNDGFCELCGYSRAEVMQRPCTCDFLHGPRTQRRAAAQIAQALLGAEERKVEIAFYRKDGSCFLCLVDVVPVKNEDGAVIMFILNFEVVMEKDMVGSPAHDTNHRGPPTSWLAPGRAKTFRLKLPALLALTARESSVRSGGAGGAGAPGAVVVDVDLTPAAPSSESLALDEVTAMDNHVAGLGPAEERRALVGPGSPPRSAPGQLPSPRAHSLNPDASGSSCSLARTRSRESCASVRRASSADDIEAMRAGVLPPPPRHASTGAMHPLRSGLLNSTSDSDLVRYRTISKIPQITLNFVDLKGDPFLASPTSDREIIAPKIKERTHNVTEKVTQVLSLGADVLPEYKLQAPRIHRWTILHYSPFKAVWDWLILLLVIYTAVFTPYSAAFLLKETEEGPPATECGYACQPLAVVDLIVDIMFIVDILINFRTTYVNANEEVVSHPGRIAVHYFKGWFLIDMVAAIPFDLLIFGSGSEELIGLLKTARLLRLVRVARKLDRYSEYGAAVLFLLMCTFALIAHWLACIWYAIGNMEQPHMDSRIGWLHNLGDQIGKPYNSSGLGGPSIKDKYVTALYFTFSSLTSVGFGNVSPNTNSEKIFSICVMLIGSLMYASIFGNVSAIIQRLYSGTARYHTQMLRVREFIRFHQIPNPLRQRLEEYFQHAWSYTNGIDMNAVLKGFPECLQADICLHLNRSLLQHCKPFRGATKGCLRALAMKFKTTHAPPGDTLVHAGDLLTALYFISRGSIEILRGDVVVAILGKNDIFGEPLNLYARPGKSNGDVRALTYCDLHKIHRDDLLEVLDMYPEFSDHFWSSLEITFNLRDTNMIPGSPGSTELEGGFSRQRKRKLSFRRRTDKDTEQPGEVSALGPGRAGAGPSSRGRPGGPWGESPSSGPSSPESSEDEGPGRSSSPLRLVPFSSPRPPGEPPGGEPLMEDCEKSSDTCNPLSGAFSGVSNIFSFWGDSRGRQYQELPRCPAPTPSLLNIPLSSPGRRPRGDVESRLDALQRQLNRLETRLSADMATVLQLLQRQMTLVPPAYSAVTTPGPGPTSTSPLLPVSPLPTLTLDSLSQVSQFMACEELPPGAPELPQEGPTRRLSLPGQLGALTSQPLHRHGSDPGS
row,Compound,"hERG current change (%, negative = inhibition) at 10uM [%]"
1,CC1CCCN(C(=S)NC2CCCC2)C1 (stereo not drawn),18.3
2,CCOC(=O)c1c(C)[nH]c(C)c1S(=O)(=O)NCCCN1CCOCC1,5.1
3,CCCc1cc(=O)n2[nH]c(-c3ccco3)nc2n1,12.8
4,CC(C)C(=O)Nc1cccc(C(=O)NCc2ccc3c(c2)OCO3)c1,-14.8
5,CC(=O)c1c(C)[nH]c(C(=O)CSc2ccc(F)cc2)c1C,2.62
6,Oc1ccccc1-c1cc(-c2ccccc2)no1,13.9
7,CCOc1cc(/C=C2/C(=N)N3C(=NC2=O)SN=C3S(=O)(=O)C(C)C)ccc1OC(=O)c1ccco1,3.02
8,COC(CN(C)C(=O)c1cn(C)c2ccc(S(=O)(=O)N(C)C3CCCCC3)cc2c1=O)OC,10.3
9,CCOC(=O)CN1C(=O)c2ccccc2C1=O,14.2
10,COc1ccc(N2CCN(S(=O)(=O)c3ccc(Cl)c(C(F)(F)F)c3)CC2)cc1,0.858
11,CCOC(=O)c1csc(NNC=O)n1,6.73
12,Cc1ccccc1NC(=O)c1c(C)nn(-c2ccccc2)c1Cl,-9.14
13,O=C(O)c1cc(S(=O)(=O)N2CCCCC2)ccc1Cl,-2.16
14,O=C(c1ccc(Cl)cc1)C1CCCN(Cc2ccc3nonc3c2)C1 (stereo not drawn),-34.9
15,Cc1ccc(C(=O)n2cnnc2N)cc1C,-0.0756
16,O=C(CCN1C(=O)S/C(=C/c2ccccc2)C1=O)Nc1ccc(C(=O)O)c(O)c1,22.7
17,c1ccc(Oc2cc(-c3ccccc3)ncn2)cc1,-9.9
18,Cc1ccc2cc(CN(CC3CCCO3)C(=S)Nc3ccccc3)c(=O)[nH]c2c1 (stereo not drawn),-37
19,Cc1ccccc1Nc1nc(Cl)c(C=O)s1,-8.73

row,Compound,"hERG current change (%, negative = inhibition) at 10uM [%]"
1,COc1ccc(N2CCN(C(=O)CCC(=O)N3Cc4ccccc4Oc4ncccc43)CC2)cc1,-48.4
2,CC(C)(CNS(C)(=O)=O)SCc1ccc(Cl)cc1,0.17
3,Cc1csc2c(=O)n(CCO)c(=O)[nH]c12,12.3
4,Cc1cc(C(=O)c2ccccc2)c(NC(=O)CCl)s1,3.14
5,Cc1cccc(-c2noc(CN(C(=O)C(c3ccccc3)c3ccccc3)C(C)C)n2)c1,-7.56
6,CCOc1cc(S(=O)(=O)N2CCN(Cc3ccccc3)CC2)ccc1Br,-10.1
7,Cc1ccccc1CNC(=O)C1CCN(c2nnc(N3CCCC3=O)s2)CC1,19.3
8,CCOC(=O)CC(=O)Nc1nnc(CC(C)C)s1,-1.6
9,O=C1c2ccccc2C(=O)N1OCc1ccc(Cl)cc1,7.45
10,Cc1ccc(-n2c(-c3ccco3)nc3c(cnn3-c3ccc(C)cc3)c2=O)cc1,14.2
11,CN1/C(=C\C(=O)Nc2ccc(Cl)cc2)C(C)(C)c2ccccc21,21.2
12,CCOc1ccc(NC(C(=O)Nc2cccc(C(C)=O)c2)c2ccccc2)cc1 (stereo not drawn),-49.7
13,CCOc1ccc(NC(=O)c2ccccc2OC)cc1,15.8
14,COc1cc2cc(C#N)c(SCC(=O)N3CCOCC3)nc2cc1OC,-0.169
15,O=C(Nc1ccccc1)C1CC(=O)N(c2ccc3c4c(cccc24)CC3)C1 (stereo not drawn),2.77
16,CCC(C(=O)NCCCN1CC(C)CC(C)C1)n1ncn2c(cc3occc32)c1=O (stereo not drawn),-11.3
17,Nc1c(C(=O)NCc2ccc(F)cc2)c2nc3ccccc3nc2n1CCCN1CCOCC1,0.0395
18,Cc1ccc(=O)n(-c2ccccc2)c1,-0.456
19,COc1ccc2oc(C(=O)OCC(=O)N(C)C3CCS(=O)(=O)C3)c(C)c2c1 (stereo not drawn),-16.2

row,Compound,"hERG current change (%, negative = inhibition) at 10uM [%]"
1,O=C1C2C3C=CC(C3)C2C(=O)N1Nc1ccc([N+](=O)[O-])cc1[N+](=O)[O-] (stereo not drawn),3.34
2,Cc1ccnc(NC(=O)c2ccc(Cl)c([N+](=O)[O-])c2)c1,3.55
3,COc1ccc(C2c3[nH]c4ccccc4c3CCN2Cc2cccn2-c2ncccn2)cc1C (stereo not drawn),-52
4,Cn1ccnc1SCC(=O)c1cccc(C(F)(F)F)c1,-27.8
5,COc1ccc(CCNC(=S)Nc2cc(C)cc(C)c2)cc1,1.9
6,Cc1ccsc1/C=N/NC(=O)c1ccc2c(c1)OCCO2,8.41
7,O=C(NNC(=O)c1nc(Cl)ccc1Cl)c1ccc(F)cc1,-10.4
8,CNC(=S)Nc1ccc(OC)c(OC)c1,3.55
9,CC1(C)CC(=O)C(C2=NC3(CCCCC3)Cc3ccccc32)=C(O)C1,10.4
10,O=C(N[C@@H](Cc1ccccc1)C(=O)OCc1ccccc1)c1nc[nH]c1C(=O)N[C@@H](Cc1ccccc1)C(=O)OCc1ccccc1,8.2
11,O=C(NCc1ccc(Cl)cc1)C(=O)NCC1OCCN1C(=O)c1ccc(Cl)cc1 (stereo not drawn),-4.88
12,OCC[C@@H]1C[C@H](O)[C@@H](O)[C@]2(OCCc3ccccc32)O1,17.5
13,N#C/C(=N\[O-])c1nc(-c2ccccc2)cs1.[K+],-8.69
14,O=C(/C=C\c1cn(-c2ccccc2)nc1-c1ccc2c(c1)OCCO2)N1CCOCC1,2.39
15,CCOc1ccc(NC(=O)c2ccc(CNc3c(N4CCCC4)c(=O)c3=O)cc2)cc1,5.86
16,Cc1ccccc1S(=O)(=O)NCc1cccnc1,5.17
17,CN1CCCC(OC(=O)c2cccc(S(=O)(=O)N3CCCCCC3)c2)C1.Cl (stereo not drawn),-28.4
18,Cc1ccccc1C(=O)Nc1ccc(O)c2c(=O)cc(-c3ccccc3Cl)oc12,-9.06
19,O=C1C2C(C(=O)N1/N=C/c1ccc([N+](=O)[O-])o1)C1C=CC2C12CC2 (stereo not drawn),-0.281
